Data reported in PubChem BioAssay (NCATS).
Inconclusive results, whose numbers are uncertain, are shown with a selection of clear calls. For some of these results: Potencies of inconclusive entries are doubtful fits and often do not repeat. Active and inactive are the calls of the source. Unless noted, calls come from the whole dose curve; as a rule, active = well fitted curve in the direction sought with a large enough effect; inconclusive = small, poorly fitted or top-dose-only effect, or another doubt; inactive = no such curve, though single readings can be large; an effect the other way counts as inactive or inconclusive.

Columns and labels:
[1] = AP1 Signaling Pathway (AID 357; active = well fitted curve in either direction with a large enough effect, not every such curve was filed as active; inconclusive = small, poorly fitted or top-dose-only effect, or another doubt; note: top concentration of the series differs between compounds; % is set by controls: 0 for no effect and ±100 for the full control effect); details: ME-180 AP-1-bla reporter, EGF-induced, beta-lactamase ratio, 5 h; at 17.2 µM (top of the series) unless noted
Method in brief: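 ME-180 cells with beta-lactamase reporter under AP-1 response element, stimulated with EC50 EGF; compounds tested in titration series, 5 h at 37 °C. CCF4 substrate added 2.5 h at room temperature; 460/530 nm emission ratio gave %activity and AC50.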

[2] = NFAT Signaling Pathway (AID 444; active = well fitted curve in either direction with a large enough effect, not every such curve was filed as active; inconclusive = small, poorly fitted or top-dose-only effect, or another doubt;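 note: carbachol stimulus at about its EC50 of 1 µM final; % is set by controls: 0 for no effect and ±100 for the full control effect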); details: Jurkat NFAT-bla M1, carbachol, beta-lactamase ratio, 5 h; at 17.2 µM (top of the series) unless noted
Method in brief: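 Read-out: CCF4 FRET ratio (460 nm/530 nm) after 1 h RT dye loading, used for %activity and AC50 from titration series. Cells: Jurkat NFAT-β-lactamase/M1 line, treated with compound plus 1 uM carbachol for 5 h, 37 °C.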

[3] = Stat Signaling Pathway (AID 446; active = well fitted curve in either direction with a large enough effect, not every such curve was filed as active; inconclusive = small, poorly fitted or top-dose-only effect, or another doubt;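 note: ME-180 cervical cancer cells given 40 pM IL-6 alongside compound; SIE-controlled beta-lactamase reporter measured as 460/530 nm FRET emission ratio; top concentration of the series differs between compounds; % is set by controls: 0 for no effect and ±100 for the full control effect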); details: ME-180 SIE beta-lactamase reporter, IL-6 stimulated, 5 h; at 7.69 µM (top of the series) unless noted
Method in brief: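 Compound effects on IL-6-induced STAT reporter activity were measured in ME-180 cells. After overnight culture, cells were co-treated with 40 pM IL-6 for 5 hrs before beta-lactamase substrate loading at room temperature.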

[4] = qHTS Assay for Identification of Small Molecule Agonists for Hypoxia Response Element Signaling Pathway (AID 914; active = well fitted activation curve with a large enough effect in the signal ratio, with a control signal flat, not every such curve was filed as active; inconclusive = small, poorly fitted or top-dose-only effect, or effect the other way, or a change in a side signal; the % refers to the signal ratio; note: potency is the fitted concentration of half-maximal effect); details: ME-180 (cervical carcinoma) HRE-bla reporter, beta-lactamase ratio, CoCl2, 17 h; activation: active compounds read high
Method in brief: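 Reporter activity (beta-lactamase, CCF4 460nm/530nm ratio) in HRE-bla ME-180 cells is recorded after 17 h compound exposure with EC50 CoCl2 at 37 degrees Celsius. AC50 values come from titration data.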

CP191 = assay: qHTS profiling for inhibitors of Plasmodium falciparum proliferation (AID 504749);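 note: 0% = DMSO vehicle and full inhibition = artemisinin control; nearly all actives have a fitted effect of over 60% in size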; details: P. falciparum in erythrocytes, SYBR Green DNA, 72 h; series mostly up to 12.8 µM
Method in brief: (§1)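 SYBR Green fluorescence of parasite DNA, read after lysis and overnight dark incubation, measured growth over 72 h in erythrocyte culture at 0.3% parasitemia and 2.5% hematocrit. Data normalised to DMSO and 0.29 uM artemisinin, with plate-drift correction.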

CP215 = assay: as above; details: P. falciparum in erythrocytes, SYBR Green DNA, 72 h; series mostly up to 28.7 µM
Method in brief: as §1

CP265 = assay: as above; details: P. falciparum in erythrocytes, SYBR Green DNA, 72 h; series mostly up to 28.7 µM
Method in brief: as §1

CP329 = assay: as above; details: P. falciparum in erythrocytes, SYBR Green DNA, 72 h; series mostly up to 28.7 µM
Method in brief: as §1

[5] = molecular target: Glucocorticoid receptor (Homo sapiens) (UniProt P04150); assay: GR-GFP Redistribution (AID 450;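 active = compounds whose dose series gives a full or clear partial fitted curve of increased nuclear translocation; inconclusive = weak partial curve or effect only at the top dose; inactive = no dose-dependent translocation response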; note: potency is the fitted concentration of half-maximal effect); details: U2OS GR-GFP nuclear translocation, laser cytometry, 2 h
Sequence of UniProt P04150 (P04150 whole entry, looked up): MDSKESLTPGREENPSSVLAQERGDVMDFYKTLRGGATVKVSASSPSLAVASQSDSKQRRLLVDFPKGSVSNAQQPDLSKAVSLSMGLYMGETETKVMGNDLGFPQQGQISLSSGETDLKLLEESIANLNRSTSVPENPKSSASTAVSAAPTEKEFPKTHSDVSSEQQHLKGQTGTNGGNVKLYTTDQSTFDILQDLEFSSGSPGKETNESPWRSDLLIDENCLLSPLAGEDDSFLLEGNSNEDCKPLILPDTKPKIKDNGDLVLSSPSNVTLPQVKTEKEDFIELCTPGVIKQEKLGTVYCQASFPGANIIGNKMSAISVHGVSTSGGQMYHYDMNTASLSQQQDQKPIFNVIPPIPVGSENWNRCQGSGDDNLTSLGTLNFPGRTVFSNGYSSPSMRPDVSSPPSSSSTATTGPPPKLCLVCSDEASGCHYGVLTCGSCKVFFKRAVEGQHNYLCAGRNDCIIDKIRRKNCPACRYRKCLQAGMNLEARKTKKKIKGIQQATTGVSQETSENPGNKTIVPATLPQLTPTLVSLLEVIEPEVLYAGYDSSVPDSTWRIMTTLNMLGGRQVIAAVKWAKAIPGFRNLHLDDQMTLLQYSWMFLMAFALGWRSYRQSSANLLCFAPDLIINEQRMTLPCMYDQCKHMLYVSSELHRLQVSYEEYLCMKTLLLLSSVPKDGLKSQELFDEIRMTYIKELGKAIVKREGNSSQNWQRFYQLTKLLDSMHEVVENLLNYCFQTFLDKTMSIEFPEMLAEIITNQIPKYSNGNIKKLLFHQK

[6] = molecular target: Vitamin D3 receptor (Homo sapiens) (UniProt P11473); assay: qHTS for Inhibitors of the vitamin D receptor (VDR): Hit Validation in Primary Screen (AID 602199); details: VDR-coactivator inhibition assay, qHTS confirmation; note: potency is the fitted concentration of half-maximal effect
Sequence of UniProt P11473 (P11473 whole entry, looked up, the tested form may be a part): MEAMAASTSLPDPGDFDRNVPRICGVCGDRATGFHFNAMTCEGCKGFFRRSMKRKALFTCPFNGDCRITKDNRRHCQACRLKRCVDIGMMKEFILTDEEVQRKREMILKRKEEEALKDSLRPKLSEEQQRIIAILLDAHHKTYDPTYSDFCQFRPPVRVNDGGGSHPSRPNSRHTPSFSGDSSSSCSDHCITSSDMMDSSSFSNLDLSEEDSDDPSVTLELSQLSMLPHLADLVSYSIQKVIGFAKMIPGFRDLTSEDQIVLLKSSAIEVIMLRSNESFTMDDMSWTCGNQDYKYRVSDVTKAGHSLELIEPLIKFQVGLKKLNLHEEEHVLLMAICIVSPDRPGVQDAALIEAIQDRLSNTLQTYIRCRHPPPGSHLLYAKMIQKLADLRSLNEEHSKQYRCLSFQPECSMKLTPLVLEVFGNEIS
Method in brief: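 With 800 nM VDR and 5 uM LG19078 agonist present, compounds were incubated 2 h at ambient temperature with Alexa 647-labelled SRC2-3. Displacement was read as polarization at 620/688 nm.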

[7] = molecular target: Vitamin D3 receptor (Homo sapiens) (UniProt P11473); assay: qHTS for Inhibitors of the vitamin D receptor (VDR): Hit Validation using a Fluorescein Assay (AID 602200); note: potency is the fitted concentration of half-maximal effect
Method in brief: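 Compounds added to VDR ligand-binding domain (1.5 uM) with agonist LG19078 (5 uM) and 5 nM SRC2-3 fluorescein peptide, final concentrations. After 2 h at ambient temperature, polarization of fluorescein emission (Ex 495 nm/Em 520 nm) measured.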

[8] = qHTS for Inhibitors of the vitamin D receptor (VDR): Hit Validation using a Texas Red Assay (AID 602201); note: potency is the fitted concentration of half-maximal effect
Method in brief: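 After a 2-hour room-temperature incubation, polarization of Texas-Red emission was read (Ex 595 nm/Em 615 nm). Final mix contained 7 nM Texas Red, 1.5 uM VDR-LBD and LG19078.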

[9] = molecular target: Vitamin D3 receptor (Homo sapiens) (UniProt P11473); assay: qHTS for Inhibitors of the vitamin D receptor (VDR): Hit Validation using a Beta-Lactamase Assay (AID 602202); note: potency is the fitted concentration of half-maximal effect
Method in brief: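 Beta-lactamase reporter read-out (447 nm emission of cleaved FRET substrate, 2 h) after 18 h compound exposure of HEK293 cells carrying a VDR-GAL4 fusion and UAS reporter, stimulated with LG190178.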

[10] = molecular target: 3',5'-cyclic-AMP phosphodiesterase 4B (Homo sapiens) (UniProt Q07343); assay: qHTS Assay for Inhibitors of PDE-IV (AID 607; active = well fitted activation curve with a large enough effect in the main read-out, with a control signal flat, not every such curve was filed as active; inconclusive = small, poorly fitted or top-dose-only effect, or effect the other way, or a change in a side signal; note: potency is the fitted concentration of half-maximal effect); details: HEK293 ACTOne CNG channel cells, membrane potential fluorescence; activation (PDE inhibition): at 22.9 µM (top of the series)
Sequence of UniProt Q07343 (Q07343 whole entry, looked up): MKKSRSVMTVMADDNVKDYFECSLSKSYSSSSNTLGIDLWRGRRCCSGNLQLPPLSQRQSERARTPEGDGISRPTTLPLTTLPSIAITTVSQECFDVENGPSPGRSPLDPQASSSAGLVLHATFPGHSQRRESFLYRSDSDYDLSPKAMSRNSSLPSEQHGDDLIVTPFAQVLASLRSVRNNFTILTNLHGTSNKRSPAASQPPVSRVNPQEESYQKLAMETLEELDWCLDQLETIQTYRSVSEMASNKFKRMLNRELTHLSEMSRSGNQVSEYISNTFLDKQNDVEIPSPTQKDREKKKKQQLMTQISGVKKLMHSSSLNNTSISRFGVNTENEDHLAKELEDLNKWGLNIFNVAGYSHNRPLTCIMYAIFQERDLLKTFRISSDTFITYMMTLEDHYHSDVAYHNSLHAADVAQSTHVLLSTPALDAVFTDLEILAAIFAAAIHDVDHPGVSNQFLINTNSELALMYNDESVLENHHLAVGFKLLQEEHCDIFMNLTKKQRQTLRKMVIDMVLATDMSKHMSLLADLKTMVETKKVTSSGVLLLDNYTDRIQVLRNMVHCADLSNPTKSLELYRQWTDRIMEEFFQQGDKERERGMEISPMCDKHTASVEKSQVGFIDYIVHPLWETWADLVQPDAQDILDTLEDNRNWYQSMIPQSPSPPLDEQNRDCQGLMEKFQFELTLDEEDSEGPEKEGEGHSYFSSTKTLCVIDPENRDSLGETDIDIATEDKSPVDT
Method in brief: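 ACTOne HEK293 cells carry a modified cAMP-gated CNG channel and express endogenous PDE4; plated 1000 cells/well, compounds up to 22.9 uM final. Membrane-potential dye fluorescence (ex 535/em 590) was read; parental cells received 10 uM forskolin + 100 uM RO 20-1724.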

[11] = qHTS Assay for Identification of Small Molecule Antagonists for NFkB Signaling Pathway (AID 895; active = well fitted inhibition curve with a large enough effect in the signal ratio, with a control signal flat, not every such curve was filed as active; inconclusive = small, poorly fitted or top-dose-only effect, or effect the other way, or a change in a side signal; the % refers to the signal ratio; note: potency is the fitted concentration of half-maximal effect); details: NFkB beta-lactamase reporter cells, FRET ratio 460/530, stimulated with 10 pM TNF alpha; activity change, negative = inhibition: at 38.3 µM (top of the series)
Method in brief: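 Beta-lactamase reporter read-out (460 and 530 nm emission ratio, 405 nm excitation, 2 hrs substrate loading RT) after 5 hr stimulation with 10 pM TNF alpha in compound-treated NFkB-bla ME-180 cells in low-serum medium.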

[12] = qHTS Assay for Identification of Small Molecule Antagonists for Thrombopoietin (TPO) Signaling Pathway (AID 918); details: TPO-dependent cell signaling reporter, antagonist mode; activity change, negative = inhibition: at 38.5 µM (top of the series); note: nearly all actives have a fitted effect of over 60% in size
Method in brief: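 Inhibition read as reduced luciferase luminescence after 24 h at 37 C in IL-3-deprived Ba/F3 cells carrying human TPO receptor and GPIIb-promoter reporter, stimulated with 26 pM TPO (final, its EC50) alongside compound.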

[13] = molecular target: Muscarinic acetylcholine receptor M1 (Rattus norvegicus) (UniProt P08482); assay: qHTS Assay for Antagonists of Acetylcholine Muscarinic M1 Receptor: Measurement of IP-One Response (AID 944); note: potency is the fitted concentration of half-maximal effect; nearly all actives have a fitted effect of over 75% in size
Sequence of UniProt P08482 (P08482 whole entry, looked up): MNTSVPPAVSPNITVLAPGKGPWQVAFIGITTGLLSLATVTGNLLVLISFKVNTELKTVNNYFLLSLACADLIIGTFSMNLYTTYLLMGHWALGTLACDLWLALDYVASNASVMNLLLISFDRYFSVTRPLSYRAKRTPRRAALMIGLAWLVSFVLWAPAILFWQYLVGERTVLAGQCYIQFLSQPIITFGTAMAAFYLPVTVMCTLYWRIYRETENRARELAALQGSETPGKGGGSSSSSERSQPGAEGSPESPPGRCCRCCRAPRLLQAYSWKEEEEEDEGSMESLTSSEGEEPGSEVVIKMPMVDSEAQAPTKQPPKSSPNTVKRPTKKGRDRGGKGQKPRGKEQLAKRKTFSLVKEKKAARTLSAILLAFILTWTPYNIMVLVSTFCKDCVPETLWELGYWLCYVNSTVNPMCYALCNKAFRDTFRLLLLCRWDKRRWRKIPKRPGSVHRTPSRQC

[14] = molecular target: Ubiquitin carboxyl-terminal hydrolase 1 (Homo sapiens) (UniProt O94782); assay: Inhibitors of USP1/UAF1: Pilot qHTS (AID 504865);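 note: rhodamine fluorescence freed from ubiquitin-rhodamine substrate followed over time; potency is the fitted concentration of half-maximal effect; nearly all actives have a fitted effect of over 35% in size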
Sequence of UniProt O94782 (O94782 whole entry, looked up): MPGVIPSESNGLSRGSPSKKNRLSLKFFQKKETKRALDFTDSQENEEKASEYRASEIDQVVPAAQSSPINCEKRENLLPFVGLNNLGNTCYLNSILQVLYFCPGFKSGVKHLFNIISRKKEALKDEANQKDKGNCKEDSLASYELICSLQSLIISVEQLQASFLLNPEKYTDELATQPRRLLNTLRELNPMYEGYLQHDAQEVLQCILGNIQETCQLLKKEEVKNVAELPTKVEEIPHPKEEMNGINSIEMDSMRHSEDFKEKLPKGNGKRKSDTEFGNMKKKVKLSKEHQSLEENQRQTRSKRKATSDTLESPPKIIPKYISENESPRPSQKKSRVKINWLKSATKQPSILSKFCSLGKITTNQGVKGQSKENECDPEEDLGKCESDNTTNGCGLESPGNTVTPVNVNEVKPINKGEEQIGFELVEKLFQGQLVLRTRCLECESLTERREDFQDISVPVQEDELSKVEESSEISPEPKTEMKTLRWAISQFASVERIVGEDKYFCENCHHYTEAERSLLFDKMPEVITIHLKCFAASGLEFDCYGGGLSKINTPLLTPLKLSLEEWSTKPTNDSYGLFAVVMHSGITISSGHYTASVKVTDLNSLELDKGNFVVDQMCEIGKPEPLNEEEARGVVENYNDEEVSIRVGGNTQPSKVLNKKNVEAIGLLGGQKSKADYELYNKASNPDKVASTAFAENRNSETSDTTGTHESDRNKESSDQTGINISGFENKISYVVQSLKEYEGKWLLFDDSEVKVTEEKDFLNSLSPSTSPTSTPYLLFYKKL
Method in brief: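 Kinetic fluorescence assay: 1nM USP1/UAF1, 15 min compound preincubation, then 150nM Ub-Rho; 480/540 nm.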
Tags give direction and shape of the fitted curve or compound fluorescence and quenching.

COc1ncc2nc(-c3ccc(F)cc3)c(=O)n(C)c2n1
active: Potency [4] 3.16 µM
inconclusive: activity change, negative = inhibition [1] 66.7% [activator] [at 7.69 µM] | activity change, negative = inhibition [2] 90.6% [activator] [at 7.69 µM] | activity, negative = inhibition [3] 106% [activator]

CC1(C)[C@@H](OC(=O)CCC(=O)O)CC[C@@]2(C)[C@H]1CC[C@@]1(C)[C@H]2C(=O)C=C2[C@H]3C[C@](C)(C(=O)O)CC[C@]3(C)CC[C@@]21C
inconclusive: activity change, negative = inhibition [2] -36.4% [inhibitor]
inactive: activity change, negative = inhibition [1] 16.5% | Potency (CP191) | Potency (CP215) | Potency (CP265) | Potency (CP329)

O=C(c1ccccc1)C(CCC(CN1CCOCC1)C(=O)c1ccccc1)CN1CCOCC1 (stereo not drawn)
active: Potency [9] 20.6 µM
inconclusive: activity change, negative = inhibition [1] -48% [inhibitor] | activity change, negative = inhibition [2] -117% [inhibitor] | Potency [5] 29.7 µM [partial curve] | Potency [4] 1.58 µM [inhibitor, full curve] | Potency [6] 22.4 µM [inhibitor, partial curve] | Potency [7] 17.8 µM [inhibitor, single point] | Potency [8] 31.6 µM [inhibitor, partial curve]

CCCCC[C@H](O)c1cccc(OCc2ccc3ccccc3n2)c1
inconclusive: activity change, negative = inhibition [1] -34.4% [inhibitor] [at 38 µM] | activity change, negative = inhibition [2] -91.8% [inhibitor] [at 38 µM] | Potency [10] 15.8 µM [activator, single point] | Potency [11] 0.891 µM [inhibitor, full curve, poor fit] | Potency [4] 7.94 µM [inhibitor, partial curve, poor fit] | activity change, negative = inhibition [12] -15.2% [phenotype inactive] | Potency [13] 20 µM [inhibitor, partial curve, poor fit]

COC(=O)C1=C(C)NC(C)=C(C(=O)OCCN(C)Cc2ccccc2)[C@H]1c1cccc([N+](=O)[O-])c1
inconclusive: activity change, negative = inhibition [1] -48.6% [inhibitor] | activity change, negative = inhibition [2] -71.5% [inhibitor] | Potency [14] 31.6 µM [inhibitor, partial curve]
